Laboratory results taken from PubChem BioAssay AID651820 (National Center for Advancing Translational Sciences (NCATS), 2012).
In all, about 340,000 compounds went through this assay and about 12,000 (3.5%) were called active. Inconclusive results, whose numbers are uncertain, are shown with a selection of clear calls. The call rests on the fitted dose curve; in most records, active means well fitted inhibition curve with a large enough effect; inconclusive means small, poorly fitted or top-dose-only effect, or another doubt; inactive means no such curve, though single readings can be large or run the other way. Potencies of inconclusive entries are left out as doubtful fits.

Test: qHTS Assay for Inhibitors of Hepatitis C Virus (HCV)
Conditions: Huh7.5.1 HCVcc-Cre (HCVcc is cell-culture hepatitis C virus) infection, luciferase reporter, 44 h; activity change, negative = inhibition: at 41.8 µM (top of the series) unless noted
Summary of the method: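 A cell-based infection assay in which seeded cells (1,000 per well) receive test compound after 4 h, are inoculated with HCVcc-Cre at approximately 0.5 moi, and are incubated 44 h before luminescence detection.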
On the % scale 0 is the no-effect control and ±100 the full control effect; potency means the concentration at half of the fitted maximal effect; tags describe the fitted curve by direction and shape.

| Compound | Potency | activity change, negative = inhibition |
| --- | --- | --- |
| Cc1cc(=O)n2nc(N3CCC(C(=O)NCc4ccccc4F)CC3)sc2n1 | inconclusive [inhibitor, single point] |  |
| CCSc1nc(N)nc2c1ncn2C1OC(CO)C(O)C1O (centres undefined) |  | inactive: -2.32% |
| CCOC(=O)c1c(NC(=O)C2CCCN(S(=O)(=O)c3ccccc3)C2)sc2c1CCCC2 (centres undefined) | active: 5.62 µM |  |
| CN(C)Cc1nc2ccccc2c(=O)n1CC(=O)Nc1cccc(S(=O)(=O)N2CCOCC2)c1 | inconclusive [inhibitor, single point] |  |
| NC(N)=Nc1nc(-c2ccccc2)c2cc(F)ccc2n1 | inconclusive [inhibitor, partial curve] |  |
| CCOC(=O)c1nc2c(ccc3ccccc32)cc1C |  | inconclusive: -58.6% [inhibitor] |
| Clc1ccccc1OCc1nn2c(-c3ccncc3)nnc2s1 |  | inactive: -22.7% |
| CC(C)CC(=O)NC(=S)Nc1ccc(N2CCN(C(=O)c3cccs3)CC2)cc1 | inconclusive [inhibitor, single point] |  |
| CCCc1nnc(NC(=S)Nc2ccccc2)s1 |  | inactive: -14.9% |
| COc1ccc(C(=O)N/N=C/c2ccc(OC)c(CN3CCCc4ccccc43)c2)cc1 | active: 6.31 µM |  |
| Cc1ccn2c(NC(=O)C(C)(C)Oc3ccc(Cl)cc3)c(-c3cccs3)nc2c1 | inconclusive [inhibitor, partial curve] |  |
| CCCCCCCN1CCN=C1Nc1ccccc1 | inconclusive [inhibitor, single point] |  |
| Cc1ccc(C(=O)CSc2nc3ccccc3c(=O)[nH]2)cc1C |  | inactive: -11.3% |
| COc1ccc(/C=N/NC(=O)C2c3ccccc3-c3ccccc32)cc1 | inconclusive [inhibitor, single point] |  |
| COc1cc(N2CCCC2)c(OC)cc1/C=C1/NC(=S)NC1=O | inconclusive [inhibitor, partial curve] |  |
| O=C(O)c1ccc2c(c1)C(c1ccccc1)OC2=O (centres undefined) | inconclusive [inhibitor, partial curve] |  |
| COc1cccc(-c2nn(C)c3sc(C(=O)NCc4ccc(C)cc4)cc23)c1 | inconclusive [inhibitor, partial curve] |  |
| COc1ccc(OCCCC(=O)Nc2ccc(S(=O)(=O)N3CCOCC3)cc2)cc1 | inconclusive [inhibitor, full curve] |  |
| CCOC(=O)c1c(C)n(C)c2ccc(OCC(O)CNCCc3ccccc3)cc12 (centres undefined) | active: 12.6 µM |  |
| CN1CCN(c2ccccc2NC(=O)c2ccc(N3CCCCC3)c([N+](=O)[O-])c2)CC1 | inconclusive [inhibitor, single point] |  |
| Cc1nn(C)c(C(=O)N2CCOCC2)c1Cl |  | inactive: 17.6% |
| O=C(CN1CCC(C(O)(c2ccccc2)c2ccccc2)CC1)Nc1cc(Cl)ccc1Cl |  | inactive: -19.2% |
| CCCOC(=O)NC(CC)COC(=O)Nc1cccc(C)c1C (centres undefined) | inconclusive [inhibitor, single point] |  |

| Compound | Potency | activity change, negative = inhibition |
| --- | --- | --- |
| N#Cc1c(C(F)(F)F)cc(-c2ccco2)nc1SCc1ccncc1 | inconclusive [inhibitor, partial curve] |  |
| CCOC(=O)c1cn2nc(Oc3ccc(NC(C)=O)cc3)ccc2n1 |  | inactive: -24.4% |
| O=[N+]([O-])c1ccc(Nc2ccccc2O)c2nonc12 |  | inactive: -6.6% |
| O=C(NCCN1C(=O)S/C(=C\c2ccc(Cl)c([N+](=O)[O-])c2)C1=O)C1=COCCO1 | active: 11.2 µM |  |
| COCCCNC(=O)CN(Cc1ccc(Cl)cc1)S(C)(=O)=O | inconclusive [inhibitor, single point] |  |
| CCOC(=O)[C@H]1[C@H]2COc3ccc(Br)cc3[C@@H]2N2C(=O)CN(Cc3ccc(OC)cc3)C(=O)[C@@]12C | inconclusive [inhibitor, single point] |  |
| Clc1ccc2c(NCc3ccco3)ncnc2c1 | inconclusive [inhibitor, partial curve] |  |
| Cc1cc(-c2nn(-c3ccccc3F)cc2CN2CCCC(C(N)=O)C2)c(C)s1 (centres undefined) |  | inactive: 9.74% |
| COc1cc(OC)cc(C(=O)NNC(=O)CCNS(=O)(=O)c2ccc(Br)cc2)c1 |  | inactive: 11.3% |
| O=C(CN1CCCc2ccccc21)Nc1ccc(F)cc1[N+](=O)[O-] | inconclusive [inhibitor, single point] |  |
| Cc1ccc(/C=C/C(=O)OCC(=O)NCCN2C(=O)CSC2=O)o1 | inconclusive [inhibitor, partial curve, poor fit] |  |
| Cc1nc2c(F)c(F)c(C(F)(F)F)c(F)c2[nH]1 | inconclusive [inhibitor, single point] |  |
| O=C(CNC(=O)c1ccco1)N=Nc1c(O)n(CCc2ccccc2)c2ccccc12 | inconclusive [inhibitor, single point] |  |
| CCCC(=O)Nc1cccc(Oc2nc(C)cc(C)c2C#N)c1 | inconclusive [inhibitor, full curve, poor fit] |  |
| COc1ccc(OC)c(/C=C/C(=O)N2CCN(S(=O)(=O)c3cc(C)ccc3C)CC2)c1 | inconclusive [inhibitor, single point] |  |
| O=C(CC(Cc1ccccc1)C(=O)O)Nc1ccc(F)cc1 (centres undefined) | inconclusive [inhibitor, single point] |  |
| CSc1nc(N)c2cn[nH]c2n1 | inconclusive [inhibitor, partial curve, poor fit] |  |
| C#CCSc1nc(-c2ccccc2)cc(C(F)(F)F)c1C#N | inconclusive [inhibitor, full curve, poor fit] |  |
| O=C(Nc1nccs1)C1CCN(S(=O)(=O)c2c(Cl)cccc2Cl)CC1 | inconclusive [inhibitor, single point] |  |
| Cn1c(=O)c2c(nc(CN3CCN(Cc4ccccc4)CC3)n2Cc2ccc(F)cc2)n(C)c1=O |  | inactive: -2.21% |
| CCOc1ccccc1NC(=O)CSc1nc(=O)n(CCCN2CCOCC2)c2c1CCCC2 | inconclusive [inhibitor, single point] |  |
| Cc1nnc(C)n1/N=C/c1ccc2c(c1)OCCO2 | inconclusive [inhibitor, single point] |  |
| O=C1CN=C(c2cccs2)c2c(sc3c2CCCC3)N1 | inconclusive [inhibitor, single point] |  |

| Compound | Potency | activity change, negative = inhibition |
| --- | --- | --- |
| Cc1nc(NCC(c2ccccc2)N(C)C)c2c(C)c(C)sc2n1 (centres undefined) | inconclusive [inhibitor, single point] |  |
| COc1ccccc1Nc1nnc(SCc2cc(=O)n3cc(C)ccc3n2)s1 | inconclusive [inhibitor, partial curve] |  |
| CCCc1c(C(=O)NNc2cc(C(F)(F)F)ccc2Cl)cnn1-c1ccccc1 | inconclusive [inhibitor, partial curve] |  |
| Cn1c(N)c(C(=O)COC(=O)c2ccc(F)cc2Cl)c(=O)n(C)c1=O | inconclusive [inhibitor, single point] |  |
| CCc1nn2cc(C(=O)c3cc(Cl)ccc3O)cnc2c1-c1ccc(F)cc1 | inconclusive [inhibitor, partial curve, poor fit] |  |
| Oc1ccc(-c2nc3ccccc3s2)cc1 |  | inactive: 13.8% |
| Cc1ccccc1CSCC(=O)c1c(N)n(CC(C)C)c(=O)n(C)c1=O |  | inactive: 2.55% |
| CCCNC(=S)N1CCC(C(=O)c2ccc3c(c2)OCCO3)CC1 | inconclusive [inhibitor, partial curve] |  |
| COc1ccc(CNC(=O)C2CCCN2CCc2ccccc2)cc1OC (centres undefined) | inconclusive [inhibitor, partial curve] |  |
| O=C1C2C(c3ccccc3)C=CC(c3ccccc3)C2C(=O)N1c1ccncc1 (centres undefined) |  | inactive: 24.1% |
| CCOC(=O)c1sc2ncnc(NCc3ccco3)c2c1C | inconclusive [inhibitor, single point] |  |
| CN1CCN(C(=O)c2cccc(COc3cc(Cl)ccc3Cl)c2)CC1 | inconclusive [inhibitor, full curve] |  |
| CCN(CC)CCCN(C(=O)c1ccc(OC)cc1)c1nc(-c2ccc(OC)cc2)cs1 | inconclusive [inhibitor, partial curve] |  |
| O=C(Nc1ccc(Oc2ccccc2)nc1)C1CCN(Cc2ccccc2)CC1 | inconclusive [inhibitor, single point] |  |
| CN(C(=O)c1cccc(NC(=O)Cc2ccc(NC(=O)C3CCN(C(=O)CCc4ccccc4)CC3)cc2)c1)C1CCC1 | inconclusive [inhibitor, partial curve] |  |
| CCC(C(=O)Nc1cc(Cl)c(OC)cc1OC)c1ccccc1 (centres undefined) | inconclusive [inhibitor, partial curve] |  |
| COc1cccc(OC)c1-c1nn2c(-c3ccccc3Cl)nnc2s1 |  | inactive: -26.1% |
| CNC(=S)N1CCn2cccc2C1c1cccnc1 (centres undefined) |  | inactive: 6.42% |
| O=C1c2ccccc2-c2onc3c(N4CCN(CCO)CC4)cc(N4CCN(C(=O)c5ccco5)CC4)c1c23 | inconclusive [inhibitor, single point] |  |
| Cc1ccc(Cn2ncc3c(N4CCCC4)ncnc32)cc1 | inconclusive [inhibitor, partial curve] |  |
| COc1ccc(/C=N/c2oc(-c3ccccc3)cc2C#N)cc1OC | inconclusive [inhibitor, single point] |  |
| COc1ccc(NC(=O)C2CCCCN2N)cc1OCC(C)C (centres undefined) | inconclusive [inhibitor, full curve] |  |
| CCOC(=O)c1c(C)[nH]c(C(=O)COC(=O)CNC(=O)c2ccccc2Cl)c1C | inconclusive [inhibitor, full curve] |  |
